{"source": "PubChem BioAssay AID489043", "about": "(National Center for Advancing Translational Sciences (NCATS), 2010)", "note": "Inconclusive means that the source gave no clear call. Such entries were picked first, then a sample of the others. Where the call is inconclusive, the potency comes from a doubtful curve fit. Calls of active or inactive are those of the source. Calls come from the whole dose curve; as a rule, active = well fitted activation curve with a large enough effect; inconclusive = small, poorly fitted or top-dose-only effect; inactive = flat fitted curve, though single readings scatter. Potency is the fitted concentration of half-maximal effect; tags give direction and shape of the fitted curve."}
{"target": "Relaxin receptor 2 (Homo sapiens) (UniProt Q8WXD0)", "sequence (Q8WXD0 whole entry, looked up)": "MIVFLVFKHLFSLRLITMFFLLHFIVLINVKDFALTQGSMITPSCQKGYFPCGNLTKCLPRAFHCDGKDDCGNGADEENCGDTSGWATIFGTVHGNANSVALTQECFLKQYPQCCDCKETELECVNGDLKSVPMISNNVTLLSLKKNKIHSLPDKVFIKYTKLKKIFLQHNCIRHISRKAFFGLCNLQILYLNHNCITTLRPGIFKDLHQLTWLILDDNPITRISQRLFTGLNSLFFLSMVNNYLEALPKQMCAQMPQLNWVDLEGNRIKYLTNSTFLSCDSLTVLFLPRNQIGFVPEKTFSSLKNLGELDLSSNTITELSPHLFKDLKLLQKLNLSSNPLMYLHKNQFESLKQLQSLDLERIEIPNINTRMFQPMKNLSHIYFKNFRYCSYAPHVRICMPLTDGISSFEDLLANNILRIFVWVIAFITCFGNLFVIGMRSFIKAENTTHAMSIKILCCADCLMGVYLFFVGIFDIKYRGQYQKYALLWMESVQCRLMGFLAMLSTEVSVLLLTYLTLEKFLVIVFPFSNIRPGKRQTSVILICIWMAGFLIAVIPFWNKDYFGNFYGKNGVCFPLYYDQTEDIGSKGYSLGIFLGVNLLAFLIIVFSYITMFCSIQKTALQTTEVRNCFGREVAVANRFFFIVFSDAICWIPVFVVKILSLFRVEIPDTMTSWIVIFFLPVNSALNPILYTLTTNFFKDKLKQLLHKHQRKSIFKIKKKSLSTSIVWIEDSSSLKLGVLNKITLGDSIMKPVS", "assay": "qHTS Assay for Agonists of the Relaxin Receptor RXFP1: RXFP2 Hit Validation; note: nearly all actives have a fitted effect of over 65% in size", "conditions": "HEK293 RXFP2 cAMP TR-FRET, 30 min; series mostly up to 115 µM", "summary_of_the_method": "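Selectivity counter-assay for cAMP accumulation: RXFP2-HEK293 cells given compounds with Ro 20174 for 30 min at 37C, then lysed for TR-FRET cAMP detection. Data scaled to 29 nM porcine relaxin (100%); Hill-equation EC50.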"}
{"smiles": "CC(C)OCCCn1c(=O)c2ccccc2n2c(CCC(=O)NCc3ccccn3)nnc12", "Potency": "inconclusive: 30.9 µM [activator, partial curve]"}
{"smiles": "Cc1ccc(CN(C)C(=O)c2ccccc2NC(=O)c2ccccc2)o1", "Potency": "inactive"}
{"smiles": "COc1cccc(NC(=O)Cn2c3ccc(OC)cc3c3nc4n(c(=O)c32)CCS4)c1", "Potency": "inconclusive: 21.8 µM [activator, partial curve]"}
{"smiles": "COC(=O)C(C)Sc1ccc2nnc(-c3ccccc3)n2n1", "note": "(centres undefined)", "Potency": "inconclusive: 30.9 µM [activator, partial curve]"}
{"smiles": "Brc1ccc(-c2nn3c(-c4ccco4)nnc3s2)o1", "Potency": "inconclusive: 15.4 µM [activator, partial curve]"}
{"smiles": "O=C(C1CCN(c2ncnc3c2sc2cccc(F)c23)CC1)N1CCCC1", "Potency": "inconclusive: 38.9 µM [activator, partial curve]"}
{"smiles": "O=C(O)CCC(=O)N1CCN(c2nc(-c3ccccc3Cl)c3cc(Br)ccc3n2)CC1", "Potency": "inconclusive: 19.4 µM [activator, partial curve]"}
{"smiles": "CC(C)n1c(SCC(=O)N2CCN(C(=O)c3ccco3)CC2)nc2c1c(=O)n(C)c(=O)n2C", "Potency": "inconclusive: 6.9 µM [activator, full curve]"}
{"smiles": "CCCCn1c(=O)[nH]c(=O)c2c1nc(Cn1ncc(Cl)c(Cl)c1=O)n2CCC", "Potency": "inconclusive: 38.9 µM [activator, partial curve, poor fit]"}
{"smiles": "Cn1c(=O)c2sccc2n2c(CCCC(=O)N3CCN(c4ccccn4)CC3)nnc12", "Potency": "inconclusive: 34.6 µM [activator, partial curve]"}
{"smiles": "O=C(Nc1ccccc1C(=O)NCCc1ccccc1)c1ccco1", "Potency": "inactive"}
{"smiles": "COc1ccc(CNC(=O)CN2C(=O)NC(C)(c3cccc(Br)c3)C2=O)cc1", "note": "(centres undefined)", "Potency": "inactive"}
{"smiles": "Cc1ccc(CNC(=O)CCc2nnc3ccc(NCCCN4CCCC4=O)nn23)cc1", "Potency": "inconclusive: 11 µM [activator, full curve, poor fit]"}
{"smiles": "Cc1c(Cl)cccc1NC(=O)CSc1ccc(-c2cccnc2)nn1", "Potency": "inconclusive: 38.9 µM [activator, partial curve]"}
{"smiles": "CCOC(=O)c1sc(NC(=O)CCc2ccc(OC)cc2)nc1C", "Potency": "active: 17.3 µM"}
{"smiles": "N#Cc1c2n(c3c(N)ncnc13)CCCCC2", "Potency": "inconclusive: 34.6 µM [activator, partial curve]"}
{"smiles": "CCOc1ccccc1C(=O)Nc1ccc(S(=O)(=O)Nc2cc(OC)nc(OC)n2)cc1", "Potency": "inconclusive: 29.8 µM [activator, partial curve]"}
{"smiles": "Cc1nn(CCCC(=O)NCc2ccccc2)c(=O)c2nccn12", "Potency": "inconclusive: 38.9 µM [activator, partial curve]"}
{"smiles": "CC(=O)c1sc(NC(=O)C(C)C)nc1C", "Potency": "active: 15.4 µM"}
{"smiles": "Cc1ccc(CNC(=O)CCc2nnc3ccc(N4CCC5(CC4)OCCO5)nn23)cc1", "Potency": "inconclusive: 27.5 µM [activator, partial curve]"}
{"smiles": "CC1(C(=O)Nc2nc3ccccc3s2)CC1(Br)Br", "note": "(centres undefined)", "Potency": "inconclusive: 34.6 µM [activator, partial curve]"}
{"smiles": "Cc1cc(C)c(NC(=O)CS(=O)CC(=O)Nc2ccc(F)cc2F)c(C)c1", "note": "(centres undefined)", "Potency": "inactive"}
{"smiles": "CCCN(CCC)S(=O)(=O)c1cc(CN2C(=O)c3cccnc3C2=O)ccc1OC", "Potency": "active: 24.5 µM"}
{"smiles": "Cc1ccc(C(=O)Nc2ccccc2C(N)=O)o1", "Potency": "inactive"}
{"smiles": "Cc1ccnc(NS(=O)(=O)c2ccc(N3C(=O)c4ccccc4C3=O)cc2)n1", "Potency": "active: 18.8 µM"}
{"smiles": "O=C(NCCCN1CCCC1=O)c1c(O)nc2ccccn2c1=O", "Potency": "inconclusive: 38.9 µM [activator, partial curve]"}
{"smiles": "Cn1c(=O)c2c(ncn2CCC(=O)N/N=C/c2cccnc2)n(C)c1=O", "Potency": "inconclusive: 43.6 µM [activator, partial curve]"}
{"smiles": "O=C(CN1C(=O)c2ccc(Br)cc2C1=O)NCC1CCCO1", "note": "(centres undefined)", "Potency": "inconclusive: 38.9 µM [activator, partial curve]"}
{"smiles": "CCC(Sc1ccc2nnc(-c3cccnc3)n2n1)C(=O)O", "note": "(centres undefined)", "Potency": "inconclusive: 19.4 µM [activator, partial curve]"}
{"smiles": "COC(=O)Cn1cnc2c(C#N)c3n(c2c1=O)CCCC3", "Potency": "active: 30.9 µM"}
{"smiles": "CCN(CC)S(=O)(=O)c1cccc(C(=O)NCCCn2ccnc2)c1", "Potency": "inconclusive: 38.9 µM [activator, partial curve]"}
{"smiles": "Cc1nn(CC(=O)NCCN2CCOCC2)c(=O)c2cc3sccc3n12", "Potency": "inconclusive: 38.9 µM [activator, partial curve]"}
{"smiles": "COc1ccc(Cl)cc1-c1n[nH]c(=S)o1", "Potency": "active: 4.88 µM"}
{"smiles": "COc1ccccc1CNC(=O)CCCc1nnc2n(C)c(=O)c3sccc3n12", "Potency": "inconclusive: 19.4 µM [activator, partial curve]"}
